Consider 87 molecules from PubChem BioAssay AID463173 (ICCB-Longwood Screening Facility, Harvard Medical School, 2010).

About 4,300 (8.3%) of roughly 52,000 compounds were called active. No stated cut-off is given here; in the data, active means survival mostly below about 52% (no sharp cut-off); inactive means mostly above about 56%. Some of the results follow.

The subject of the assay is DeltatarO mutant. Put plainly: growth inhibition of S. aureus wild type versus tarO mutant, primary screen, teichoic acid synthesis inhibitors, RN4220, OD600 (AID 463173). Conditions: OD600, 18 h, active compounds read low, screened at 18.75 µg/mL (by protocol).
With `COc1ccccc1CNc1nc(-c2ccco2)nn1C(=O)c1ccccc1[N+](=O)[O-]`, the survival is inactive: 62%.
On to `c1ccc(CCNc2ccccc2)cc1`, for which the survival was inactive: 84%.
With `COc1cccc(CNC(=O)Cn2cc3c(n2)-c2c(oc(C(=O)N4CCOCC4)c2C)CC3)c1` the figure was inactive: 74%.
With `COc1ccc(S(=O)(=O)N2Cc3ccccc3CC2C(=O)Nc2cccc(C)c2)cc1OC` (configuration not stated) the figure was inactive: 71%.
With `CCOC(=O)c1sc(NC(=O)c2nc(SCC)ncc2Cl)c(C(=O)OCC)c1C` the figure was inactive: 115%.
With `CN(C)CCNC(=O)Cc1ccc(NC(=O)N2CCCCc3ccccc32)cc1`, the survival was inactive: 86%.
The same measure for `Cc1nn(Cc2ccccc2)c(C)c1NC(=O)c1cc(C(C)C)on1`: inactive: 56%.
The same measure for `CC(Sc1nnc(-c2ccc3c(c2)OCO3)o1)C(N)=O` (configuration not stated): inactive: 96%; for `Cc1ccc(C(=O)c2cn(Cc3ccc(F)cc3)c3nc(C)ccc3c2=O)cc1`: inactive: 85%.
The same measure for `COc1ccc(Cl)cc1NC(=O)c1c(C(=O)Nc2cccc(C)c2C)sc2nc(C)cc(=O)n12`: inactive: 74%; for `CCOC(=O)c1cc(-c2ccc(C)cc2)n(CC(=O)Nc2cccc(C(C)=O)c2)c1C`: inactive: 94%; for `CNCCCc1cc(C)ccc1O`: inactive: 59%.
With `COC(=O)c1ccc(CSc2nc3c([nH]c4ccccc43)c(=O)n2-c2cccc(OC)c2)o1`, the survival was inactive: 55%.
With `COc1ccc(-c2nc3ccccc3o2)cc1NC(=O)c1ccc(N2CCC(C)CC2)c([N+](=O)[O-])c1` the figure was inactive: 66%; with `COc1ccc(CNC(=O)c2cc3c(=O)n(Cc4cccs4)ccc3nc2C)cc1`, active: 37%; with `COc1ccccc1N1CCN(C(=O)CCSCc2ccccc2F)CC1`, inactive: 95%.
On to `Cc1oc(-c2ccccc2F)nc1Cn1c(SCc2ccccc2F)nc2ccncc21`, for which the survival is inactive: 68%.
With `Cc1ccccc1OCc1nc2c3cnn(-c4ccccc4Br)c3ncn2n1` the figure was inactive: 70%.
The same measure for `COc1ccc(Nc2oc(/C=C/c3ccc(F)cc3)nc2C#N)cc1`: inactive: 93%; for `COc1ccc(OCc2nnc(SCC(=O)N3C(C)CCCC3C)o2)cc1` (configuration not stated): inactive: 87%; for `COCCCn1c(=N)c(S(=O)(=O)c2ccccc2)cc2c(=O)n3cccc(C)c3nc21`: inactive: 77%.
The same measure for `COc1ccccc1OCC(O)CN1CCOCC1` (configuration not stated): inactive: 95%; for `CC1(C)CC(=O)c2cc(C(=O)Nc3ccc(Br)cc3)c(=O)n(-c3ccc(Cl)cc3)c2C1`: active: 42%; for `O=C(O)CN1C(=O)/C(=C\c2ccccc2)SC1=S`: inactive: 91%.
Consider `COc1ccc(CCNC(=O)c2cc3c(=O)n(C)c4cc(Cl)ccc4c3s2)cc1OC`, for which the survival is inactive: 80%.
With `COc1ccc(-c2[nH]c(-c3ccccc3)nc2SCC(=O)NC2CCCC2)cc1` the figure was inactive: 67%; with `CCN1C(=O)c2ccccc2Sc2ccc(NC(=O)Nc3ccc(Br)c(C)c3)cc21`, inactive: 71%.
As for `COc1ccc(-c2cc(NCc3ccc(C)cc3)n3cnnc3n2)cc1`, the survival was inactive: 83%.
The same measure for `COc1ccc(Nc2nc(N)nc(CSc3nc4ccccc4s3)n2)cc1`: active: 21%; for `COc1cccc(NC(=O)C(=O)NCCc2sc(-c3cccc(C)c3)nc2C)c1`: inactive: 120%; for `O=S1(=O)c2ccccc2N(Cc2ccccc2Cl)c2ccccc21`: inactive: 99%.
`COc1ccc(CCNc2nc(SCc3ccccc3Cl)nc3ccccc23)cc1OC`: the survival was inactive: 102%.
The same measure for `CCOC(=O)c1ccc(N2C(=O)c3[nH]nc(-c4ccccc4)c3C2c2cccs2)cc1` (configuration not stated): inactive: 123%; for `COc1ccc(NC(=O)Cn2c(=O)n(CCc3ccccc3)c(=O)c3sc4ccccc4c32)cc1`: inactive: 76%.
In the case of `Cc1cc(C)nc(-n2nc(C)c3c2NC(=O)CC3c2ccccc2OC(C)C)n1` (configuration not stated), the survival is inactive: 76%.
The same measure for `O=C(CSc1nc2c(c(=O)[nH]1)CN(Cc1ccc(F)cc1)CC2)Nc1cccc(C(F)(F)F)c1`: inactive: 68%.
With `Cc1ccccc1NC(=O)Cn1c(=O)n(CCCCC(=O)NCc2ccccc2Cl)c(=O)c2ccccc21` the figure was inactive: 92%.
The same measure for `O=C(CN1C(=O)COc2ccc(S(=O)(=O)Nc3ccccc3)cc21)NCc1ccccc1Cl`: inactive: 102%; for `CCN(CC)S(=O)(=O)c1ccc(C(=O)NC2CC(=O)N(c3ccc4c(c3)OCCO4)C2)cc1` (configuration not stated): inactive: 80%.
Consider `Cc1c(C(=O)OC2CCCCCC2)[nH]c2c1C(=O)CC(c1ccccc1Cl)C2` (configuration not stated), for which the survival was inactive: 86%.
With `CCOC(=O)c1c(S(=O)(=O)N2CCC(C(=O)Nc3cccc(C#N)c3)CC2)c(C)n(C)c1C` the figure was inactive: 115%; with `CCOc1ccc(OCC)c(NC(=O)CN(c2ccc(C)cc2)S(=O)(=O)c2c(C)n[nH]c2C)c1`, active: 32%; with `CCOc1ccc(NC(=O)C(CC)n2nc(-c3ccc(C)c(C)c3)ccc2=O)cc1` (configuration not stated), inactive: 68%.
The same measure for `COc1ccccc1N1CCN(C(c2ccccc2)c2nnc(-c3ccccc3Cl)o2)CC1` (configuration not stated): active: 32%.
The same measure for `N#CC1C(C#N)N2CCCN2C1c1ccc(Cl)cc1` (configuration not stated): inactive: 105%.
Turning to `Cc1ccc(NC(=O)Cn2c(=O)n(Cc3nc(-c4ccccc4)no3)c(=O)c3cc4c(cc32)OCO4)cc1C`, the survival is inactive: 77%.
With `Cc1ccc(C)c(NC(=O)C2CCCN(S(=O)(=O)c3cccc4nsnc34)C2)c1` (configuration not stated) the figure was inactive: 87%; with `CCC1CCCCN1C(=O)Cn1c(=O)n(-c2ccccc2C(F)(F)F)c(=O)c2c(C)c(C(=O)N(C)C)sc21` (configuration not stated), inactive: 80%.
For `CCOC(=O)c1sc(N2C(=O)c3oc4ccc(F)cc4c(=O)c3C2c2cccc(OC)c2)nc1C` (configuration not stated), the survival is inactive: 75%.
In the case of `Cc1cc(N2CCCCC2)nc2ccc(NC(=O)CCC(=O)N3CCN(c4cccc(Cl)c4)CC3)cc12`, the survival is inactive: 55%.
With `CCN(C(=O)Cn1c(SCc2ccccc2F)nc2cccnc21)c1ccccc1` the figure was inactive: 99%; with `N/C(=N\c1nc2c(c(=O)[nH]1)CCC2)Nc1cccc(Cl)c1`, inactive: 91%; with `O=C(C1COc2ccccc2O1)N(Cc1cccnc1)c1nc2ccc(F)cc2s1` (configuration not stated), inactive: 96%.
The same measure for `O=C(OCc1ccccc1)c1ccc(-c2nnn(Cc3ccccc3F)n2)cc1`: inactive: 98%; for `O=C(CSCc1nc2cccnc2n1C1CCCCC1)NCc1cccc(Br)c1`: inactive: 105%.
The same measure for `CCOc1ccc(CCNC(=O)c2ccc3[nH]c(C)c(C)c3c2)cc1`: inactive: 100%; for `Cc1ccc2scc(N3CCN(c4ccccc4)CC3)c(=O)c2c1`: inactive: 80%.
As for `O=C(c1ccc2c(c1)N(Cc1ccccc1F)C(=O)c1ccccc1S2(=O)=O)N1CCCCCC1`, the survival was inactive: 73%.
In the case of `CCCNC(=O)c1cc2n(n1)CCCN(Cc1ccc(F)cc1)C2=O`, the survival is inactive: 94%.
`COc1cccc(C(=O)c2sc(Nc3ccc(C)cc3C)c(S(=O)(=O)c3ccccc3)c2N)c1`: the survival was inactive: 65%.
For the molecule `COc1ccc(-c2csc3ncnc(Nc4ccc(OC)c(OC)c4)c23)cc1`, the survival is inactive: 98%.
With `Cc1cc(OCCn2cc(C(=O)c3cccs3)c3ccccc32)ccc1Cl` the figure was inactive: 124%; with `Cc1c(C(=O)OCCOc2ccccc2)[nH]c2c1C(=O)CC(c1ccccc1)C2` (configuration not stated), inactive: 74%.
With `O=C(Nc1ccc2nc(SCC(=O)N3CCOCC3)sc2c1)c1cccc(Cl)c1` the figure was active: 32%; with `COc1cccc(CNC(=O)C(=O)NCC(c2ccco2)S(=O)(=O)c2cccs2)c1` (configuration not stated), inactive: 94%.
The same measure for `CCOc1ccccc1CNC(=O)C1CCN(C(=O)N2CC(CC)Oc3ccc(C)cc32)CC1` (configuration not stated): inactive: 71%.
As for `CC(=O)N1CCc2cc(CNC(=O)Cc3ccc(F)cc3)ccc21`, the survival was inactive: 94%.
The same measure for `O=C(/C=C/c1ccccc1)N1CCN(Cc2cc(=O)n3nc(-c4ccccc4F)sc3n2)CC1`: inactive: 73%; for `CC(C)(C)C(=O)Cn1c(=O)n(-c2ccc(Cl)cc2)c(=O)c2c3c(sc21)CCCC3`: inactive: 103%; for `COc1ccc(N2CC(NC(=O)/C=C\c3ccccc3)CC2=O)cc1` (configuration not stated): inactive: 92%.
With `O=C(Cn1c(SCCOc2ccccc2)nc2ccccc21)N1CCOCC1` the figure was inactive: 47%; with `COc1ccc(CCNC(=O)CCn2c(=O)c3ccccc3n(Cc3cc(C)ccc3C)c2=O)cc1OC`, inactive: 84%; with `COc1ccc(NC(=O)Cn2c(=O)n(CCC(=O)NCc3ccccc3OC)c(=O)c3ccccc32)cc1Cl`, inactive: 87%.
With `Cc1ccc(Cn2ccn(Cc3ccccc3F)c(=O)c2=O)cc1`, the survival is inactive: 105%.
With `COc1ccc(Cl)cc1N(C)C(=O)c1ccc2c(=O)n3c(nc2c1)CCCCC3` the figure was inactive: 76%.
With `Cc1c(Cl)cccc1NC(=O)COCc1cc(-c2ccc3c(c2)OCO3)on1` the figure was inactive: 102%; with `COc1cccc(CNC(=O)CCc2c(C)nc3c(c(C)nn3-c3ccc(C)c(C)c3)c2C)c1`, inactive: 67%.
The same measure for `Cc1nc2c(-c3ccccc3)c(C)nn2c(C)c1CCC(=O)N1CCN(c2ccc(F)cc2)CC1`: inactive: 96%; for `Cc1cccc(N2CCN(CCCNc3ncnc4onc(-c5ccc(Cl)cc5)c34)CC2C)c1` (configuration not stated): inactive: 93%.
On to `CSc1ccc(CCNC(=O)c2ccc(-c3nc(COc4ccccc4)c(C)o3)cc2)cc1`, for which the survival is inactive: 91%.
With `CCCc1cc(=O)[nH]c2nnc(SC(C)CC)n12` (configuration not stated) the figure was inactive: 85%.
Consider `CCOC(=O)c1sc(NC(=O)/C=C/c2ccc(C(C)C)cc2)c(C(=O)OCC)c1C`, for which the survival was inactive: 52%.
`CCc1cccc(C)c1NS(=O)(=O)c1cc2[nH]c(=O)c(=O)[nH]c2cc1C`: the survival is inactive: 80%.
The same measure for `Cc1ccc2nc(N3CCN(c4cccc(C(F)(F)F)c4)CC3)c3nnnn3c2c1`: inactive: 94%; for `O=c1cc(C(F)(F)F)nc2cc(-c3ccccc3)[nH]n12`: inactive: 102%; for `CCN(CC)c1ccc(NC(=O)CCS(=O)(=O)c2cc3c(cc2Cl)NC(=O)CO3)c(C)c1`: inactive: 86%.
On to `CCN1CCOC(=O)C1CC(=O)Nc1cc(C)ccc1OC` (configuration not stated), for which the survival was inactive: 146%.
